Reference: PubChem BioAssay AID624417 (National Center for Advancing Translational Sciences (NCATS), 2012)
Hit rate of the full screen: of about 410,000 compounds, about 6,400 (1.6%) were called active. The shares of active, inactive and inconclusive entries below differ from those in the screen. Calls follow the shape of the dose curve; as a rule, active = well fitted inhibition curve with a large enough effect; inconclusive = small, poorly fitted or top-dose-only effect; inactive = no such curve, though single readings can be large or run the other way. Potencies of inconclusive entries are left out as doubtful fits.

The molecules below were run against Glucagon-like peptide 1 receptor (Homo sapiens) (UniProt P43220) (assay: qHTS of GLP-1 Receptor Inverse Agonists (Inhibition Mode)). Details: HEK293 GLP-1R CRE-luciferase, luminescence, 24 h, GLP-1R form is constitutively active; series mostly up to 38.3 µM.
Procedure, shortened: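 Using stably transfected HEK293 (constitutively active GLP-1R, cAMP-luciferase reporter), compounds were incubated 24 hr and luciferase measured by luminescence.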
Also: nearly all actives have a fitted effect of over 55% in size.
Potency is read from the fitted curve at half-maximal effect; tags tell the direction and shape of the fitted curve.

Sequence of UniProt P43220 (P43220 whole entry, looked up): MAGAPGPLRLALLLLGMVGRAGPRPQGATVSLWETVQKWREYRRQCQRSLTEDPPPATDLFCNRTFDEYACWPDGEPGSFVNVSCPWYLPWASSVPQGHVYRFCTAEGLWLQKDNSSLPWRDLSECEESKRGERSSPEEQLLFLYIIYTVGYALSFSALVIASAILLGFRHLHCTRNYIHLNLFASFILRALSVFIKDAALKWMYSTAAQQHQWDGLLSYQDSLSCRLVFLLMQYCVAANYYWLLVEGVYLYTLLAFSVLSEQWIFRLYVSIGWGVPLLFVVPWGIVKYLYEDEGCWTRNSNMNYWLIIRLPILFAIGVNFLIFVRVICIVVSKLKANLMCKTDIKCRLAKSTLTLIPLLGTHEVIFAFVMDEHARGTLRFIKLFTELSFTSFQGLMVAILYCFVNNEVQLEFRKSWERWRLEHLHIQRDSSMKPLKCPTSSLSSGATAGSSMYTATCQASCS

Row | Compound | Potency
1 | CCc1ccc(NC(=O)CN2CCC(C(=O)c3ccc(OC)cc3)CC2)cc1 | inconclusive [inhibitor, partial curve, poor fit]
2 | Cc1ccccc1N1CCN(C(=O)c2cc(-c3ccccc3)nc3c2cnn3C(C)C)CC1 | inactive
3 | Cc1ccc(OCC(=O)NC2=NCCS2)cc1 | inconclusive [inhibitor, partial curve]
4 | CC(c1nc2ccccc2c(=O)[nH]1)N1CCN(S(=O)(=O)c2ccc(F)c(Cl)c2)CC1 (centres undefined) | inconclusive [inhibitor, partial curve, poor fit]
5 | CN(C)CCNC(=O)c1sc2nc(-c3ccccc3)cc(C(F)(F)F)c2c1N | inconclusive [inhibitor, partial curve, poor fit]
6 | CC1(C)OC(=O)N(c2ccccc2)C12C=Cc1c(ccc3ccccc13)O2 (centres undefined) | inconclusive [inhibitor, partial curve, poor fit]
7 | COCC(C)n1c(C)cc(C(=O)CSc2nnnn2C2CCCC2)c1C (centres undefined) | inconclusive [inhibitor, partial curve, poor fit]
8 | O=C(/C=C/c1ccc(Cl)cc1)N1CCN(c2ccc(Cl)cc2[N+](=O)[O-])CC1 | inconclusive [inhibitor, single point]
9 | Cc1nc2ccccc2c(=O)n1/N=C/c1cn(-c2ccccc2)nc1-c1cccs1 | inconclusive [inhibitor, single point]
10 | Clc1cc(Br)ccc1OCCOCCOc1cccc2cccnc12 | inconclusive [inhibitor, partial curve, poor fit]
11 | Cc1cc2c(cc1C)N(CC(=O)N1CCCC1)C(=O)CC(c1ccccc1)=N2 | inactive
12 | Cc1nc2sc(C(c3cccc(F)c3)N3CCC(C)CC3)c(O)n2n1 (centres undefined) | inconclusive [inhibitor, partial curve, poor fit]
13 | COc1cc2c(C)nc3c(cnn3-c3ccccc3)c2cc1OC | inactive
14 | Cc1cc(Nc2ccccc2Cl)nc(-c2ccccc2O)n1 | inconclusive [inhibitor, single point]
15 | Cc1ccc(S(=O)(=O)Nc2cccc(-c3ccc(N4CCC(C)CC4)nn3)c2)s1 | inconclusive [inhibitor, single point]
16 | Fc1ccc(N2CCN(c3nc4ccccc4c4nc(-c5ccccc5)nn34)CC2)cc1 | inconclusive [inhibitor, single point]
17 | CN(CCCNC(=O)C1CCCN(S(=O)(=O)c2cnc[nH]2)C1)c1ccccc1 (centres undefined) | inactive
18 | CC1(C)Cc2c(sc3c2c(=N)n(Cc2ccco2)c(=O)n3Cc2ccccc2)CO1 | inconclusive [inhibitor, single point]
19 | N/C(Cc1cccs1)=N\OC(=O)COc1ccc(Br)cc1Cl | inactive
20 | CCOc1ccc(CNC(=O)c2ccc3oc(=O)n(Cc4ccccc4)c3c2)cc1 | inconclusive [inhibitor, single point]
21 | COc1ccc(CCNC(=O)CCc2c(C)nc3c4c(C)cc(C)nc4nn3c2C)cc1OC | inactive
22 | Cc1onc(-c2ccccc2)c1C(=O)OCC(=O)c1ccc(F)cc1 | inconclusive [inhibitor, single point]

Row | Compound | Potency
23 | O=C(Nc1ccc(Nc2ccccc2)cc1)c1ccc(Br)o1 | inconclusive [inhibitor, single point]
24 | CCCCCC(O)(c1ccc(OC)cc1)C(CN1CCOCC1)c1ccccc1 (centres undefined) | inconclusive [inhibitor, partial curve, poor fit]
25 | Cc1ccc(NC(=S)NCC2CCN(C(C)c3ccccc3)C2)cc1 (centres undefined) | inconclusive [inhibitor, partial curve, poor fit]
26 | CCOc1ccc(NC(=S)NCc2ccco2)cc1 | inactive
27 | O=C1CSC(c2cccnc2)N1Cc1ccc(Cl)cc1Cl (centres undefined) | inconclusive [inhibitor, partial curve, poor fit]
28 | O=C(CNC(=S)N(CCCN1CCOCC1)Cc1cccs1)NCc1ccc(Cl)cc1 | inconclusive [inhibitor, partial curve, poor fit]
29 | CCc1cccc(C)c1NC(=O)CN(C)Cc1ccccc1F | inconclusive [inhibitor, partial curve, poor fit]
30 | C/C(CC(=O)N1CCN(C=O)CC1)=N\NC(=O)c1cc2ccccc2cc1O | inconclusive [inhibitor, partial curve, poor fit]
31 | C=C1CCN([C@@H](Cc2ccccc2)C(=O)NCCCc2ccccc2)S(=O)(=O)c2ccccc21 | inactive
32 | COc1cccc(N2CCN(Cc3ncc(-c4ccccc4)o3)CC2)c1 | inconclusive [inhibitor, single point]
33 | Cc1ccc(-n2c(Cc3ccccc3)nnc2SCc2nc(-c3cccs3)no2)cc1C | inconclusive [inhibitor, partial curve, poor fit]
34 | COC(=O)c1nn(-c2ccccc2)c(Sc2ccc(OC)cc2)c1/C=N/O | inconclusive [inhibitor, single point]
35 | Cc1nnc(NC(=O)CSc2nnc(CCNC(=O)c3ccccc3F)n2C)s1 | inactive
36 | O=C(/C=C/c1cccc(Cl)c1)NCCc1ccccc1 | inconclusive [inhibitor, single point]
37 | Cc1cccc(NS(=O)(=O)c2cccc(C(=O)N3CCN(C/C=C/c4ccccc4)CC3)c2)c1 | inconclusive [inhibitor, partial curve, poor fit]
38 | COc1ccccc1CN(C)c1ccc(S(=O)(=O)N2CCN(C)CC2)cn1 | inconclusive [inhibitor, single point]
39 | O=C(Nc1ccc(Cl)cc1)C(NS(=O)(=O)c1cccs1)c1ccccc1 (centres undefined) | inconclusive [inhibitor, single point]
40 | CN(C)S(=O)(=O)c1ccc(S(=O)(=O)NCc2cccs2)cc1 | inactive
41 | CN1CCC(NC(=O)Nc2ccc(Br)cc2)CC1 | inconclusive [inhibitor, partial curve, poor fit]
42 | COc1ccc(C(C)(O)c2nc(-c3cccc(O)c3)cs2)cc1 (centres undefined) | inconclusive [inhibitor, partial curve]
43 | Cc1cc(N2CCOCC2)nc2ccc(NC(=S)NC(C)C)cc12 | inactive
44 | CC(C)(C)C(=O)C1=C(O)C(=O)N(Cc2ccccc2)C1c1ccccc1Cl (centres undefined) | inconclusive [inhibitor, full curve]

Row | Compound | Potency
45 | O=S(=O)(NCc1nc2cccnc2n1Cc1ccccc1Cl)c1ccc(F)c(Cl)c1 | inconclusive [inhibitor, partial curve]
46 | O=C(Nc1ccc(F)c(Cl)c1)c1cc(C2CCCN(S(=O)(=O)c3cccc4cccnc34)C2)on1 (centres undefined) | inconclusive [inhibitor, single point]
47 | COc1cccc(OCCn2ccnc2)c1 | inactive
48 | C/C(=N/Nc1nc(-c2ccccc2F)nc2ccccc12)c1ccccc1O | inconclusive [inhibitor, full curve, poor fit]
49 | COc1cc(NC(=O)CCCOc2cc(=O)n(C)c3ccccc23)cc(OC)c1OC | inactive
50 | Cc1[nH]c2ccccc2c1C(=O)/C=C/c1ccccc1 | inconclusive [inhibitor, single point]
51 | O=C(CSc1n[nH]c(-c2ccccc2)n1)Nc1ccc(Br)cn1 | inconclusive [inhibitor, partial curve, poor fit]
52 | O=C(NCCC1CCCCN1S(=O)(=O)c1cccs1)C(=O)NCc1ccccc1 (centres undefined) | inconclusive [inhibitor, single point]
53 | Cc1ccc(NC2=NCC(=O)N2Cc2ccccc2)c(C)c1 | inactive
54 | CC(C)(C)c1cc(C(=O)NNc2cccc(Cl)c2)n(Cc2ccccc2)n1 | active: 1.26 µM
55 | CCOc1ccc(N(Cc2ccccc2)C(=O)c2nc(S(C)(=O)=O)ncc2Cl)cc1 | inconclusive [inhibitor, partial curve, poor fit]
56 | CC1(C)Cc2c(c(N3CCOCC3)nc3sc4c(NCc5ccco5)nnnc4c23)CS1 | inconclusive [inhibitor, single point]
57 | Cc1cccc(N2CCN(C(=O)CS(=O)(=O)Cc3nc(-c4ccccc4C)oc3C)CC2C)c1 (centres undefined) | inconclusive [inhibitor, single point]
58 | Cc1nnsc1SCCNC(=O)Nc1ccc(Cl)cc1 | inconclusive [inhibitor, partial curve]
59 | O=C(Nc1ccccc1)C1CCN(C(=O)c2ccc(Br)cc2)CC1 | inconclusive [inhibitor, partial curve, poor fit]
60 | COc1ccc(NC(=O)NNC(=O)C(C)Oc2ccc(C(C)C)cc2)c(OC)c1 (centres undefined) | inconclusive [inhibitor, single point]
61 | CN(C)C(=O)C1C2NC(=S)N(c3cccc(Cl)c3)C1(C)Oc1ccc(Cl)cc12 (centres undefined) | inconclusive [inhibitor, single point]
62 | CCN(CCNC(=O)CC1Oc2ccccc2NC1=O)c1ccccc1 (centres undefined) | inconclusive [inhibitor, single point]
63 | CC1Cc2ccccc2N1C(=O)CCn1c(=O)sc2ccccc21 (centres undefined) | inconclusive [inhibitor, partial curve, poor fit]
64 | Cc1cc(NC(=O)CCNS(=O)(=O)c2cccc3nsnc23)ccc1Br | inconclusive [inhibitor, single point]
